Measurements: PubChem BioAssay AID1508624 (National Center for Advancing Translational Sciences (NCATS), 2021)
Hit rate of the full screen: of about 48,000 compounds, about 120 (0.25%) were called active. Another 4% or so got no clear call; they are omitted. Calls follow the shape of the dose curve; as a rule, active = well fitted activation curve with a large enough effect; inconclusive = small, poorly fitted or top-dose-only effect, or another doubt; inactive = no such curve, though single readings can be large or run the other way. Some of the results follow.

experiment: Primary qHTS for Identification of Small Molecule Activators of Huntingtin-Antisense Promoter Activity; details: HEK293 HTT-AS promoter firefly luciferase reporter, 24 h; series mostly up to 57.5 µM; activity change, positive = activation: at the top concentration; also: nearly all actives have a fitted effect of over 55% in size
Method in brief: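 HEK293 luciferase promoter-reporter cells (2,500/well) plated 24 h, then compounds added at up to 57.5 uM final for 24 h at 37 °C. Firefly luminescence by Dual-Glo, normalized to vehicle (0%) and zero RLU (-100%).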
Potency is read from the fitted curve at half-maximal effect.

Compound	activity change, positive = activation	Potency
O=S(=O)(c1cccc(Cl)c1)c1nnn2c1nc(NC1CCCCCC1)c1sccc12	inactive: -16.7%	
Cc1ccc(S(=O)(=O)c2c(C)nn(-c3ccccc3)c2OC(=O)c2ccccc2F)cc1	inactive: -14.6%	
COC(=O)N[C@H](C(=O)N[C@@H](Cc1ccccc1)[C@@H](O)CN(Cc1ccc(-c2ccccn2)cc1)NC(=O)[C@@H](NC(=O)OC)C(C)(C)C)C(C)(C)C	inactive	
CCN(CC)c1ccc(NC(=O)C2COc3ccc(OC)cc3C2)c(C)c1 (stereo not given)	inactive: -41.2%	
CCOc1ccc(CCNC(=O)c2ccc3nc(CC)c(CC)nc3c2)cc1	inactive: 0.997%	
CCOc1ccc(OCC(=O)Nc2c(C(=O)Nc3ccc(C)cc3)oc3ccccc23)cc1	inactive: -9.7%	
Cc1c(C(=O)N(C)c2cccc(C(F)(F)F)c2)sc2nc3n(c(=O)c12)CCCCC3	inactive: -25.5%	
Fc1ccc(CNc2nc3ccc(Cl)cc3n3nnnc23)cc1	inactive: 16.8%	
O=C(c1ccc2c(Cl)c3c(nc2c1)CCCC3)N1CCN(c2cccc(Cl)c2)CC1	inactive: -8.65%	
CCc1ccc(-c2ccc(C(=O)Oc3ccc(Br)cc3)cc2)nc1	inactive: 8.97%	
COc1ccc(NC(=O)C2=C(C)Nc3nc(SCc4ccccc4)nn3C2c2cc(OC)ccc2OC)cc1 (stereo not given)	inactive: -0.178%	
Cc1c(C)n(C)c2ccc(C(=O)NCCCN3CCCCC3)cc12	inactive: -7.94%	
Cc1cccc(N2C(=O)CCSC23C(=O)N(Cc2ccc(F)cc2)c2ccccc23)c1 (stereo not given)	inactive: -53.8%	
Cc1ccc(-c2c(C(=O)NCCc3ccc(Cl)cc3)oc(=O)c3ccccc23)cc1	inactive: -50%	
Cc1nnc(SCC(=O)NCc2ccccc2F)c2nn(-c3ccc(Cl)cc3)c(C)c12	inactive: -47.6%	
COCCc1nn2c(=O)cc(COC(=O)c3ccc(C(C)(C)C)cc3)nc2s1	inactive: -27.3%	
COc1ccc(CNc2ncnc3c2c(-c2ccccc2)cn3-c2ccccc2)cc1	inactive: -19.9%	
CCN(CC)S(=O)(=O)c1ccc(C(=O)N=c2sc3cccc(OC)c3n2C)cc1	inactive: -12.7%	
Cc1ccc(S(=O)(=O)c2nc(-c3ccc(Cl)cc3)oc2N2CCCCCC2)cc1	inactive: -27%	
Cc1c(-c2cccc(NC(=O)C(C)(C)C)c2)nc2ncccn12	inactive: -7.11%	
Cc1ccc(-c2nc(SCc3ccc(Br)cc3)n3[nH]c(=O)cc3n2)cc1	inactive: -62.5%	
CN1CC(=O)N(CC(=O)Nc2ccc(Cl)c(C(F)(F)F)c2)c2ccccc2C1=O	inactive: -26.1%	
CCOC(=O)c1ccccc1NC(=O)Cn1c(=O)n(Cc2ccccc2)c(=O)c2c(C)c(C)sc21	inactive: 0.881%	
O=C1C(c2[nH]c3ccccc3c2O)=Nc2ccccc21	inactive: 3.15%	

Compound	activity change, positive = activation	Potency
CN1CCC(Nc2ncc3ncnc(Nc4ccc(F)c(Cl)c4)c3n2)CC1	inactive: -10.8%	
CCN(c1ccc(Cl)cc1)S(=O)(=O)c1nnc(NC(=O)C(C)C)s1	inactive: -11.1%	
CCC(=O)Oc1ccc(-c2nc3ccccc3c(=O)o2)cc1	inactive: -5.43%	
Cc1ccc(-n2ncc(C(=O)N3CCN(Cc4ccccc4)CC3)c2C2CCN(C(=O)OC(C)(C)C)CC2)c(C)c1	inactive: -1.77%	
CC(C)(C)OC(=O)N1CCC(c2c(C(=O)NCc3ccco3)cnn2-c2ccc(F)cc2)CC1	inactive: -9.32%	
Cc1ccc(C)c(S(=O)(=O)c2nnn3c2nc(NCc2ccc4c(c2)OCO4)c2sccc23)c1	inactive: -5.67%	
CN(C)c1ccc(NC(=O)Cn2c(SCc3ccccc3F)nc3cccnc32)cc1	inactive: 6.37%	
COc1ccc(-c2nnc(SCC(=O)Nc3ccc(F)cc3)s2)cc1	inactive: -86.7%	
CN(C)c1ccc(C(CNS(=O)(=O)c2ccc(Br)cc2)N2CCOCC2)cc1 (stereo not given)	inactive: -20.6%	
O=c1c2sc3ccccc3c2n(Cc2ccccc2F)c(=O)n1CCc1ccccc1	inactive: 22.6%	
Oc1ccc(CCNCCCCCCNCCc2ccccc2)cc1O	inactive: -7.06%	
CC(=O)c1ccc(NC(=O)NCCc2c[nH]c3ccccc23)cc1	inactive: 5.82%	
CCCCCn1c(=O)[nH]c2cc(C(=O)Nc3ccc(F)cc3)ccc2c1=O	inactive: -0.38%	
Cc1cccc(-c2nc3scc(CCNC(=O)c4ccccc4Cl)n3n2)c1	inactive: -11.1%	
CCOC(=O)C1CCN(S(=O)(=O)c2cc(-c3cc(C)no3)ccc2C)CC1	inactive: -20.5%	
Cc1cccc(NC(=O)CSc2nnc(CNC(=O)c3c(F)cccc3Cl)o2)c1C	inactive: -6.39%	
CC(C)c1nn2c(=O)cc(COC(=O)c3ccc(NC(=O)CCc4ccccc4)cc3)nc2s1	inactive: 28.8%	
CC1CCN(CCNC(=O)c2ccc(Cn3c(SCc4ccccc4)nc4cccnc43)cc2)CC1	inactive: 4.92%	
COc1ccccc1CNC(=O)c1cccc(Nc2nc3ccccc3n3nnnc23)c1	inactive: -0.998%	
Cc1ccc2nc(N3CCN(c4cccc(C)c4C)CC3)c3nnnn3c2c1	inactive: -4.45%	
CCC1CN(C(=O)N2CCC(C(=O)NCc3cccs3)CC2)c2cc(C)ccc2O1 (stereo not given)	inactive: -23.5%	
CCc1cccc(NC(=O)CSc2ncc3c(n2)-c2ccccc2N(Cc2ccccc2C)S3(=O)=O)c1	inactive: 15.7%	
O=C(COc1ccc(F)cc1)Nc1ccc2nc(SCc3ccccc3)sc2c1	inactive: 5.26%	
CCOc1ccc(-c2cc(C(=O)NCc3ccccc3)c3c(-c4ccc(CC)cc4)[nH]nc3n2)cc1	inactive: -1.2%	

Compound	activity change, positive = activation	Potency
O=C(CC1(O)C(=O)N(CCc2ccccc2)c2ccc(Br)cc21)c1ccccc1O (stereo not given)	inactive: -25.9%	
Cc1ccccc1Nc1c2c(nc3nncn13)CCC2	inactive: 9.08%	
COc1ccc(NC(=O)Cc2csc(C)n2)cc1	inactive: 10.7%	
CC(C)(C)C(=O)Nc1c(C(=O)N2CCN(c3ccc(F)cc3)CC2)oc2ccccc12	inactive: -23.9%	
CCc1ccc(CNC(=O)CCN2C(=O)COc3ccccc32)cc1	inactive: -10%	
Cc1cc(C)cc(NC(=O)Cn2nnc(C(=O)Nc3cc(C)cc(C)c3)c2N)c1	inactive: -18.3%	
[O-][n+]1cccc(CO)c1	inactive: -6.69%	
CCOC(=O)c1cc(-c2ccccc2)n(CCCC(=O)Nc2cccc(Cl)c2C)c1C	inactive: -22.1%	
CSc1ccc(CCNC(=O)C(C)n2c(C)c3cnn(-c4ccccc4)c(=O)c3c2C)cc1 (stereo not given)	inactive: -22.5%	
COc1cc(NC(=O)Cn2c(C)cc3ccccc3c2=O)cc(OC)c1OC	inactive: -4.86%	
COC(=O)c1cc2oc(C)cc2n1CC(=O)Nc1ccc(C)cc1C	inactive: -4.83%	
O=C(Cn1c(=O)n(Cc2ccccc2)c(=O)c2oc3ccccc3c21)Nc1ccc(Cl)cc1	inactive: -4.22%	
Cc1ccc(/C=C/c2onc(C)c2S(=O)(=O)N2CCC(C(=O)N3CCOc4ccccc43)CC2)cc1	inactive: -12.3%	
CC(=O)Nc1cc(C(=O)NCc2ccc(F)cc2Cl)ccc1Sc1ccc(Cl)cc1	inactive: -39.4%	
CC(C)c1ccc(NC(=O)c2ccc(NC(=O)CCS(=O)(=O)c3cccs3)cc2)cc1	inactive: -22.2%	
Cc1ccc(CCNc2nc3c(S(=O)(=O)c4ccc(C)cc4)nnn3c3ccsc23)cc1	inactive: -9.87%	
COc1cc(CNC(=O)c2cc3n(n2)CCCN(Cc2ccc(C)cc2)C3=O)cc(OC)c1OC	inactive: -15.6%	
Cc1ccc(-c2c3c(=O)n(C)c(=O)n(C)c3c3c(C(F)(F)F)nc4ccccc4n23)cc1	inactive: 12.9% [at 11.5 µM, percent change from vehicle, -100% = no light]	
Cc1c(NC(=O)c2sc3c([N+](=O)[O-])cccc3c2Cl)cccc1-c1nc2ccccc2o1	inactive: 16.9%	
CCS(=O)(=O)N1CC(=O)N(c2cccc(C)c2C)C(C)(C(=O)NC2CCCCC2)C1 (stereo not given)	inactive: -0.343%	
CCOC(=O)c1[nH]c(C)c(CCC(=O)Nc2ccc(N(CC)CC)cc2C)c1C	inactive: -10.6%	
CCC(=C(c1ccccc1)c1ccc(OCCN(C)C)cc1)c1ccccc1	inactive: -26.2%	
CCn1cc(S(=O)(=O)c2cc(C)cc(C)c2)c(=O)c2cc(F)c(N3CCC(C)CC3)cc21	inactive: 2.74%	
Cc1ccc2nc(-c3ccc(C)c(NC(=O)CSc4ccc(Cl)cc4)c3)oc2c1		active: 6.31 µM

Compound	activity change, positive = activation	Potency
CCOc1ccc(N(C(=O)c2ccc(C)cc2)S(=O)(=O)c2ccc3c(c2)n(C)c(=O)n3C)cc1	inactive: -14.4%	
Cc1ccc2cccc(NC(=O)c3ccc(-c4cc(Cl)ccc4Cl)o3)c2n1	inactive: -5.74%	
O=C(NCc1ccc(Cl)cc1)c1cc2ccccc2o1	inactive: -11.6%	
Cc1ccc(C)n1-c1nnc(N2CCCC(C(=O)NCc3ccc(F)cc3)C2)s1 (stereo not given)	inactive: -8.11%	
Cc1ccc(Cl)cc1N1CCN(C(=O)Cn2cnc3nc4c(cc3c2=O)CCCC4)CC1	inactive: -5.98%	
COc1ccc(OC)c(NC(=O)c2ccc3c(c2)c(C)c(C)n3Cc2ccc(F)cc2)c1	inactive: -24.6%	
CCN(CC)C(=O)Cn1c(=O)n(CCCCCC(=O)NCc2ccccc2Cl)c(=O)c2sccc21	inactive: -10.5%	
O=C(NCc1cccc(Br)c1)c1cccn1-c1nnc(N2CCCCC2)s1	inactive: -25.6%	
Oc1ccc(Cl)cc1Nc1nc2ccccc2n2cnnc12	inactive: -12.1%	
CCOC(=O)c1ccc(NC(=O)Cc2ccc(-n3c(CC)nc4cccnc43)cc2)cc1	inactive: -7.63%	
COc1ccccc1N(Cc1cc2cccc(C)c2[nH]c1=O)C(=O)c1cccc(Cl)c1	inactive: -42.5%	
NC(=O)c1cc(S(=O)(=O)N2CCCCC2)cs1	inactive: -16.1%	
CCNC(=O)CC1C(=O)N(c2ccc(C)cc2)C(=O)N1Cc1ccc(C)cc1 (stereo not given)	inactive: -10.1%	
O=C(CCS(=O)(=O)c1ccc2c(c1)NC(=O)CO2)Nc1cccc(C(F)(F)F)c1	inactive: -9.18%	
COc1ccc(NC(=O)Cn2nnc(C(=O)NCc3ccccc3Cl)c2N)cc1Cl	inactive: -20.8%	
CCC(=O)N1CCc2cc(Br)cc(S(=O)(=O)CCC(=O)NCCc3ccccc3Cl)c21	inactive: 10.9%	
CN1CCN(C(c2cccc(Br)c2)c2sc3nc(-c4ccco4)nn3c2O)CC1 (stereo not given)	inactive: -22.2%	
Cc1ccnc(NS(=O)(=O)c2ccc(N)cc2)n1	inactive: -1.09%	
CCOc1ccc(-c2nonc2NC(=O)c2ccc(C)cc2)cc1OCC	inactive: 3.49%	
CCOc1ccc(-c2nc(SCC(=O)Nc3ccc4c(c3)OCCO4)c(-c3ccc(F)cc3)[nH]2)cc1	inactive: -13.9%	
CCC(=O)OCCCNc1nc(-c2ccc(Cl)cc2)nc2ccccc12	inactive: -7.98%	
CC(=O)N1CCCc2cc(S(=O)(=O)N3CCN(c4ccc(F)cc4)CC3)ccc21	inactive: -36.3%	
CN[C@H]1CCc2cc(OC)c(OC)c(OC)c2-c2ccc(OC)c(=O)cc21	inactive: -30.9%	
